The text below walks through data of PubChem BioAssay AID1347073 (National Center for Advancing Translational Sciences (NCATS), 2019).

Screen size: about 45,000 compounds; about 200 (0.44%) were called active. Inconclusive results (about 7%) are left out. Calls come from the whole dose curve; as a rule, active = well fitted activation curve with a large enough effect; inconclusive = small, poorly fitted or top-dose-only effect; inactive = no such curve, though single readings can be large or run the other way. The list shows a part of the results.

This assay in a line: qHTS of TDP-43 Inhibitors: NCGC Sytravon Library Screen. Note: 0% is about no effect; nearly all actives have a fitted effect of over 55% in size. As to conditions: yeast TDP-43 toxicity rescue, BacTiter-Glo growth, 24 h; at 46.1 µM (top of the series). The gist of the method: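 TDP-43-expressing yeast, pregrown in raffinose, seeded at OD600 0.02 in galactose medium with compound for 24 hr at 30 deg C. Growth read by BacTiter-Glo luminescence, so rescue of toxicity appears as activation.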
As to `O=C(Cc1ccccc1)N1CCN(C2CCCCCC2)CC1`, the growth rescue (activation) was inactive: -5.99%.

For `Cc1cc(N2CCCCC2)ccc1C=C1C(=O)N(C)C(=S)N(C)C1=O`, the growth rescue (activation) is inactive: 13.6%.

As for `COc1ccccc1-n1c(-c2ccc(C)cc2)nc2ccccc2c1=O`, the growth rescue (activation) is inactive: 7.76%.

With `CC1=CC(=C2C(=O)NC(=O)NC2=O)C=C(C(F)(F)F)N1Cc1ccccc1`, the growth rescue (activation) was inactive: 1.37%.

With `O=C(c1ccc(Cl)cc1)C1CCCN(C2CCSCC2)C1` (stereo not given), the growth rescue (activation) was inactive: 9.44%.

Consider `CN1OC[C@@H]2COc3ccc4ccccc4c3[C@@H]21`, for which the growth rescue (activation) is inactive: 6.52%.

With `Cc1ccccc1-n1c(O)c(/C=N/c2nccs2)c(=O)[nH]c1=O`, the growth rescue (activation) is inactive: 2.66%.

As to `CC1CN2c3ccc([N+](=O)[O-])cc3CC3(C(=O)N(C)C(=O)N(C)C3=O)C2C(C)O1` (stereo not given), the growth rescue (activation) was inactive: 1.18%.

Regarding `Cc1ccc(S(=O)(=O)NC(Cc2cnc[nH]2)C(=O)O)cc1` (stereo not given), the growth rescue (activation) is inactive: 5.44%.

In the case of `CC(C)CN(C(=O)CN1CC=C(c2ccccc2)CC1)c1c(N)n(CC(C)C)c(=O)[nH]c1=O`, the growth rescue (activation) was inactive: -7.54%.

As for `COc1ccccc1N1C(=O)NC(=O)/C(=C/c2ccc3c4c(cccc24)CC3)C1=O`, the growth rescue (activation) was inactive: 1.44%.

In the case of `C=CCn1c(O)c(C(C)=Nc2cc(OC)ccc2OC)c(=O)[nH]c1=O`, the growth rescue (activation) was inactive: -17.9%.

Regarding `c1ccc(CNc2c3c(nc4ccccc24)CCC3)cc1`, the growth rescue (activation) is inactive: 11.6%.

On to `CN1C(=O)C(=Cc2ccccc2OCc2ccc(C(=O)O)cc2)C(=O)N(C)C1=O`, for which the growth rescue (activation) is inactive: -0.293%.

In the case of `CN(C(=O)c1ccc(Cl)nc1)C1(c2ccccc2Cl)CCCCC1=O` (stereo not given), the growth rescue (activation) was inactive: 17.1%.

Take `O=C(/C=C/c1ccc2c(c1)OCO2)c1c(O)n(CCC2=CCCCC2)c(=O)[nH]c1=O`: the growth rescue (activation) was inactive: -4.73%.

For `CN(C)c1ccc(/C=C/C=C/c2sc3ccccc3[n+]2C)cc1`, the growth rescue (activation) was inactive: -35.2%.

Take `COC(=O)Cn1cc(/C=C2\C(=O)NC(=O)N(c3ccccc3)C2=O)c2ccccc21`: the growth rescue (activation) was inactive: -6.24%.

Regarding `C[n+]1c(-c2ccccc2)cc(-c2ccc(Cl)cc2)cc1-c1ccccc1`, the growth rescue (activation) is inactive: 5.98%.

For `O=C1NC(=O)C(Sc2ccccc2[N+](=O)[O-])C(=O)N1`, the growth rescue (activation) was inactive: -0.477%.

With `C=CCN1C(=O)NC(=O)/C(=C/c2ccc(OC)c(COc3ccc(NC(C)=O)cc3)c2)C1=O`, the growth rescue (activation) is inactive: -2.12%.

`O=Cc1cn(Cc2cccc(F)c2)c2ccccc12`: the growth rescue (activation) was inactive: 27%.

Take `CN1CCN(c2cc(N3CCNCC3)ccc2[N+](=O)[O-])CC1`: the growth rescue (activation) was inactive: 7.32%.

On to `C[C@]12CC[C@@H](O)CC1=CCC1C2CC[C@@]2(C)C1C[C@@H](F)[C@H]2O` (stereo not given in full), for which the growth rescue (activation) was inactive: 26.5%.

`COc1ccc(-c2[nH]ncc2CNC(C)Cc2cccc(C)n2)cc1F` (stereo not given): the growth rescue (activation) is inactive: 7.11%.

Take `COc1ccc2c(CCN)c[nH]c2c1`: the growth rescue (activation) is inactive: 11.9%.

As for `CCn1cc(/C=c2/sc3n(c2=O)C2c4ccccc4OC(C)(N=3)C2C(=O)OC)c(C)n1` (stereo not given), the growth rescue (activation) was inactive: 4.16%.

With `Cc1ccc(O)c(C(=O)c2cc(C(=O)NCCC(C)C)c(=O)n(CCC(C)C)c2)c1`, the growth rescue (activation) is inactive: -11.9%.

Take `COc1ccc(CC2(CCc3ccccn3)C(=O)NC(=O)N(c3ccccc3C)C2=O)cc1OC` (stereo not given): the growth rescue (activation) is inactive: 6.99%.

Regarding `O=c1[nH]c(=O)n(-c2ccc(F)cc2)c(O)c1/C=C1\C=Nc2ccccc21`, the growth rescue (activation) is inactive: -6.33%.

`O=C1NC(=O)N(c2ccccc2)C(=O)/C1=C\c1ccc([N+](=O)[O-])s1`: the growth rescue (activation) was inactive: 24.7%.

Consider `NC(Cc1ccccc1)c1nc2ccccc2[nH]1` (stereo not given), for which the growth rescue (activation) was inactive: 1.79%.

Turning to `Cc1c(N=Nc2c(O)[nH]c(=O)[nH]c2=O)c(=O)n(-c2ccccc2)n1C`, the growth rescue (activation) is inactive: -0.708%.

In the case of `Cc1cc(N2CCOCC2)ccc1/C=C1\C(=O)NC(=O)N(c2ccccc2)C1=O`, the growth rescue (activation) is inactive: 1.09%.

As to `Cc1ccc2c(c1)c(=O)c1c3n2CCN(CC2CO2)C3CC1` (stereo not given), the growth rescue (activation) is inactive: -2.4%.

For `OCCOCC#CCN1CCOCC1`, the growth rescue (activation) is inactive: -13%.

Take `Cc1ccccc1-n1c(O)c(/C=C2/C(c3ccccc3)=Nc3ccccc32)c(=O)[nH]c1=O`: the growth rescue (activation) is inactive: 20.3%.

With `O=c1c2ccccc2nc(/C=C\c2ccccc2[N+](=O)[O-])n1-c1ccccc1O`, the growth rescue (activation) was inactive: 13.8%.

Regarding `COc1ccc(OCC(=O)N2CCN(CC3CC4C=CC3C4)CC2)cc1` (stereo not given), the growth rescue (activation) was inactive: 1.8%.

`COc1cc(CC2(CCc3ccncc3)C(=O)N(C)C(=O)N(C)C2=O)cc(OC)c1OC`: the growth rescue (activation) was inactive: 4.35%.

Regarding `CCc1ccc(N2C(=O)NC(=O)C(CCc3ccncc3)(CCc3ccncc3)C2=O)cc1`, the growth rescue (activation) was inactive: 3%.

Regarding `C[C@@H]1CC2C3CC=C4C[C@@H](O)CC[C@]4(C)C3CC[C@]2(C)[C@H]1O` (stereo not given in full), the growth rescue (activation) is inactive: 17.6%.

As to `CC(=O)N1CN2CN(C1)CN(C(C)=O)C2`, the growth rescue (activation) is inactive: 5.84%.

As to `O=C(CSC1c2ccccc2-c2ccccc21)N/N=C/c1ccc(C(=O)O)cc1`, the growth rescue (activation) is inactive: 10.7%.

Consider `C=CCn1c(O)c(C(CC)=NCCc2c[nH]c3ccccc23)c(=O)[nH]c1=O`, for which the growth rescue (activation) was inactive: 14.6%.

In the case of `CC(=NCCCO)c1c(O)[nH]c(=O)[nH]c1=O`, the growth rescue (activation) was inactive: 9.16%.

Turning to `Nc1c2c(nc3sc4c(c13)CCCC4)CCCC2`, the growth rescue (activation) is inactive: 6.52%.

Take `CC1CN(CC(=O)c2ccccc2Cl)CC(C)O1` (stereo not given): the growth rescue (activation) is inactive: 11%.

For `O=[N+]([O-])NC1=NCN(Cc2ccco2)CN1Cc1ccco1`, the growth rescue (activation) is inactive: -30.4%.

With `O=C1NC(=S)N(c2ccccc2)C(=O)/C1=C/c1ccco1`, the growth rescue (activation) was inactive: -5.89%.

As for `CN(C)C(=O)Oc1ccc2c(c1)O/C(=C\c1cccc(Cl)c1)C2=O`, the growth rescue (activation) is inactive: 6.08%.

Turning to `Cc1ccc(C2=NN(CCC(=O)N3CCC4(CC3)OCCO4)C(=O)CC2)cc1`, the growth rescue (activation) was inactive: -18.3%.

`CN(Cc1c[nH]c2ccccc12)C1CCCCC1`: the growth rescue (activation) is inactive: 15.1%.

On to `CC1CC(OP(O)(=S)c2ccc(N(C)C)cc2NC(=O)c2cccs2)CC(C)(C)C1` (stereo not given), for which the growth rescue (activation) is inactive: 20.4%.

On to `CC(C(N)=O)N1CC(c2ccccc2)CC1=O` (stereo not given), for which the growth rescue (activation) is inactive: 12.1%.

As for `Cc1ccc(N=C(N(C)C)P(=O)(N(C)C)N(C)C)cc1`, the growth rescue (activation) is inactive: -15.2%.

Turning to `CC1(C)C(C(=O)N2CCN(C(=O)c3ccccc3)CC2)C1(C)C`, the growth rescue (activation) was inactive: -0.344%.

`O=c1c2ccccc2nc(CNCC2CCCO2)n1-c1ccc(F)cc1` (stereo not given): the growth rescue (activation) was inactive: 4.51%.

In the case of `CC(C(=O)O)N(C(=O)c1ccccc1)c1ccc(F)c(Cl)c1` (stereo not given), the growth rescue (activation) was inactive: -30.8%.

Take `O=c1[nH]c(=O)n(-c2ccc(Br)cc2)c(O)c1C=NC(CO)(CO)CO`: the growth rescue (activation) was inactive: -5.28%.

Regarding `Cc1ccccc1-n1c(O)c(/C=N/Nc2nc3c(c(=O)n(C)c(=O)n3C)n2C)c(=O)[nH]c1=S`, the growth rescue (activation) is inactive: 15.7%.

As to `C[C@]12CCC3C(CC[C@H]4C[C@@H](O)CC[C@]34C)[C@H]1C=CC2=O` (stereo not given in full), the growth rescue (activation) was inactive: 29.6%.

Turning to `COc1ccc(-c2nn(CCC#N)cc2C(=O)Nc2ccccc2Br)cc1[N+](=O)[O-]`, the growth rescue (activation) was inactive: 25%.

Turning to `CCC1(C(=O)c2ccccc2)C2c3ccccc3OC(=O)C21C(C)=O` (stereo not given), the growth rescue (activation) was inactive: 5.68%.

Turning to `Cc1ncc(CN2CCCC(C(=O)c3cccc(Cl)c3)C2)s1` (stereo not given), the growth rescue (activation) was inactive: 16.5%.

On to `CN1CCN(c2ccc(C(N)=O)cc2[N+](=O)[O-])CC1`, for which the growth rescue (activation) was inactive: -1.72%.

For the molecule `CSc1ccc(C(=O)C2CCCN(Cc3cnc(SC)nc3)C2)cc1` (stereo not given), the growth rescue (activation) is inactive: -23.5%.

For `CC(C)(C)C(=O)O[C@H]1CC[C@@]2(C)C(=CC(=O)C3C2CC[C@]2(C)C(=O)[C@@H](F)CC32)C1` (stereo not given in full), the growth rescue (activation) is inactive: 27.7%.

For the molecule `C/C(=N\NC(N)=O)c1c(O)n(C)c(=O)n(C)c1=O`, the growth rescue (activation) was inactive: -12.6%.

With `Cc1c(C=C2C(=O)N(C)C(=O)N(C)C2=O)c(=O)n(-c2ccccc2)n1C`, the growth rescue (activation) was inactive: 6.23%.

Regarding `O=C1NC(=O)N(c2ccccc2)C(=O)/C1=C/c1ccoc1`, the growth rescue (activation) was inactive: 14.5%.

`CC(=O)Nc1nnc(CCN(CCc2nnc(NC(C)=O)s2)[N+](=O)[O-])s1`: the growth rescue (activation) was inactive: -2.68%.

As for `C[C@]12CCC3C(CC[C@H]4C[C@H](O)CC[C@]34C)C1C[C@@H](O)[C@H]2O` (stereo not given in full), the growth rescue (activation) is inactive: 5.53%.

As for `O=C(CN1CC=C(c2ccccc2)CC1)NC(=O)NC1CCCCC1`, the growth rescue (activation) is inactive: 3.91%.

For `Cc1ccc(-n2c(O)c(C=NCC3CCCO3)c(=O)[nH]c2=O)c(C)c1` (stereo not given), the growth rescue (activation) is inactive: -10.7%.

For the molecule `C[C@]12CCC3C(CC[C@H]4C[C@@H](O)CC[C@]34C)C1C[C@@H](O)[C@]2(C)O` (stereo not given in full), the growth rescue (activation) is inactive: 17.1%.

As for `N#Cc1c(/N=C/C2C(=O)NC(=S)NC2=O)sc2c1CCCC2`, the growth rescue (activation) was inactive: 13.5%.

In the case of `O=C1NC(=O)N(c2ccc3c(c2)OCO3)C(=O)/C1=C/c1cccs1`, the growth rescue (activation) was inactive: -5.14%.

`O=c1[nH]c(=S)n(Cc2ccc(F)cc2)c(O)c1C=NCc1ccc2c(c1)OCO2`: the growth rescue (activation) was inactive: 5.63%.

Turning to `C[C@]12CCC3C(CC[C@H]4C[C@@H](O)CC[C@]34C)C1C/C(=N/O)[C@@H]2O` (stereo not given in full), the growth rescue (activation) was inactive: -3.66%.

With `Cc1cc(C(=O)N=Nc2c(O)n(C)c3ccccc23)c(C)o1`, the growth rescue (activation) is inactive: 15.4%.

Regarding `CCN(CC)c1ccc(N=Cc2c(O)n(-c3cc(OC)ccc3OC)c(=O)[nH]c2=O)cc1`, the growth rescue (activation) is inactive: -3%.

For `O=C(O)C1Cc2ccccc2N2CCCC12` (stereo not given), the growth rescue (activation) is inactive: 0.546%.

For the molecule `COc1ccc(-n2c(/C=C/c3ccc4c(c3)OCO4)nc3ccccc3c2=O)cc1`, the growth rescue (activation) was inactive: 6.53%.

Take `Cc1cc([N+](=O)[O-])c(Cl)cc1NC(=O)C(C)C`: the growth rescue (activation) was inactive: 13%.

For the molecule `Cc1ccccc1N1C(=O)NC(=O)/C(=C\c2cc(C)n(C)c2C)C1=O`, the growth rescue (activation) was inactive: -2.46%.

Regarding `O=C(CCN1CCCCC1)Nc1ccc(Br)cc1C(=O)c1ccccc1`, the growth rescue (activation) was inactive: 0.977%.

With `CC(=O)N(C1=NCCCS1)c1ccc(Cl)cc1`, the growth rescue (activation) was inactive: -20.5%.

Regarding `Clc1ccc(-c2nc3ccc(Cl)cn3c2CN2CCOCC2)cc1`, the growth rescue (activation) is inactive: 2.23%.

Turning to `Cc1cc(NC(=O)COC(=O)c2c(C)nn(Cc3ccccc3)c2C)no1`, the growth rescue (activation) was inactive: 22.1%.
